Assay results taken from the BET-seq Pho4 binding data (Le et al. 2018).
This is one part of the list. Values were computed here from the reads of four pooled replicates and scatter widely.

biological target: T1, Pho4 (S. cerevisiae) (UniProt P07270); test: relative binding free energy (BET-seq); higher = weaker binding; conditions: reference: library average
T1 sequence: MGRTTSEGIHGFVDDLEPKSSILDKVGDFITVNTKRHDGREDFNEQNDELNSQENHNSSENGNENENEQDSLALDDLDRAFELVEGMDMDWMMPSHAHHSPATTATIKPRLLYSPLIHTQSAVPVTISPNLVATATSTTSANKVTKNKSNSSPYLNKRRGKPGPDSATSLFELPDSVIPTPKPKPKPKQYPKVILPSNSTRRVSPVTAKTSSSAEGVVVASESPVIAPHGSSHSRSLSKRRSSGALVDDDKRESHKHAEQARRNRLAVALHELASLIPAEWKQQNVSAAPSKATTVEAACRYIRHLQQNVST

Sequence	relative binding free energy
AAGGGCACGTGTCAAG	-0.16 kcal/mol
TGTGACACGTGAATGA	0.25 kcal/mol
GATCTCACGTGTTGGT	0.36 kcal/mol
ACGAGCACGTGGGATG	-0.11 kcal/mol
GTCGTCACGTGGTATG	0.03 kcal/mol
AAAGACACGTGCTGGT	0.06 kcal/mol
ATATTCACGTGTATTT	0.24 kcal/mol
GGGTCCACGTGGGAGC	-0.05 kcal/mol
ATTAGCACGTGAGATA	0.18 kcal/mol
AAGTGCACGTGTTATC	0.03 kcal/mol
CTCGGCACGTGAGTGT	0.21 kcal/mol
GAGTACACGTGGGTGA	-0.12 kcal/mol
GAGTGCACGTGCCTGT	0.01 kcal/mol
ATGTACACGTGAGTTG	0.15 kcal/mol
TTTAGCACGTGGAGGA	-0.07 kcal/mol
GTGAGCACGTGGTCAT	-0.22 kcal/mol
AGTGGCACGTGAGGTT	0.16 kcal/mol
TAGGTCACGTGGAGCT	0.12 kcal/mol
ATTAGCACGTGAGGAG	0.19 kcal/mol
TATGTCACGTGAGGCG	0.29 kcal/mol
TGTAACACGTGGTGGG	0 kcal/mol
CTGTGCACGTGTAGCG	0.03 kcal/mol
TTTACCACGTGGTGGT	-0.19 kcal/mol

Sequence	relative binding free energy
ACTGACACGTGGTGGA	0.01 kcal/mol
TGATTCACGTGAAGCT	0.4 kcal/mol
AGTTACACGTGTTATG	0.11 kcal/mol
ATGGACACGTGATGGG	0.19 kcal/mol
GTGGTCACGTGGCCTG	0.19 kcal/mol
TTAAGCACGTGTGCTT	-0.14 kcal/mol
TGGATCACGTGGTACG	0.02 kcal/mol
ATATTCACGTGTTTAT	0.14 kcal/mol
AGTGTCACGTGGGGCG	-0.17 kcal/mol
TAGCTCACGTGTTTGA	0.1 kcal/mol
GTATGCACGTGGGCAG	-0.05 kcal/mol
GCCGGCACGTGGGGGC	-0.32 kcal/mol
TCGTTCACGTGTAGAA	0.37 kcal/mol
AGATGCACGTGCGTGC	0.06 kcal/mol
TGGATCACGTGTGCCA	0.27 kcal/mol
TGAAACACGTGTTGTT	0.01 kcal/mol
TGCAACACGTGGGGTT	-0.13 kcal/mol
TTTAACACGTGTAGCG	0.07 kcal/mol
TGGTACACGTGATGCT	0.17 kcal/mol
AGGCTCACGTGTGAAG	0.24 kcal/mol
TAATCCACGTGGAGGG	-0.05 kcal/mol
TTGGGCACGTGTATGA	0 kcal/mol
CATGACACGTGTGTTT	0.1 kcal/mol

Sequence	relative binding free energy
TTATGCACGTGGCGAG	0.03 kcal/mol
TGGGACACGTGTTTCG	0.09 kcal/mol
TGTGACACGTGTGTTC	0.02 kcal/mol
GATATCACGTGCTTAT	0.31 kcal/mol
TCGTACACGTGAGGGG	0.33 kcal/mol
AAGTTCACGTGCGTGT	0.33 kcal/mol
TAGGTCACGTGGTGTA	-0.03 kcal/mol
ACTGACACGTGGGTTT	-0.17 kcal/mol
TTAGGCACGTGTTAAT	-0.12 kcal/mol
AGGATCACGTGATAGG	0.33 kcal/mol
TGATGCACGTGTGTCG	-0.16 kcal/mol
AATGGCACGTGATGGT	0.1 kcal/mol
ATGTGCACGTGTATGG	-0.07 kcal/mol
TCCTTCACGTGGGATT	0.4 kcal/mol
GACGGCACGTGTGGTT	-0.07 kcal/mol
TTGGGCACGTGGGAAA	-0.07 kcal/mol
AATAACACGTGTATGT	-0.08 kcal/mol
CGTTGCACGTGGCGAG	0.02 kcal/mol
ACGTTCACGTGATTAG	0.43 kcal/mol
GAGGGCACGTGTTATG	0 kcal/mol
GGGTACACGTGGGGCA	0 kcal/mol
GTCGCCACGTGATGGG	0.14 kcal/mol
TGATGCACGTGCTATA	0.05 kcal/mol

Sequence	relative binding free energy
ATGGTCACGTGACATT	0.19 kcal/mol
CATTGCACGTGATGTG	-0.08 kcal/mol
GGCATCACGTGTTTAG	0.14 kcal/mol
CGGCTCACGTGGTGGA	0.19 kcal/mol
CGAGGCACGTGAGGAT	0.22 kcal/mol
GGTATCACGTGTAGCT	0.19 kcal/mol
ATGGTCACGTGGTGGC	0.01 kcal/mol
GATATCACGTGTTCGG	0.19 kcal/mol
GGATTCACGTGTCTGT	0.21 kcal/mol
AATTGCACGTGTGTGC	0.14 kcal/mol
ATGTGCACGTGCGGTG	-0.05 kcal/mol
AGTAGCACGTGGAGTA	-0.06 kcal/mol
GGGTACACGTGGGATT	-0.01 kcal/mol
ACGGGCACGTGGAGCT	-0.04 kcal/mol
TGTGTCACGTGATGGT	0.26 kcal/mol
TATGACACGTGACGGG	0.07 kcal/mol
CGTTGCACGTGCTGGG	-0.19 kcal/mol
TTGTTCACGTGCGGAT	0.22 kcal/mol
GTCCGCACGTGTTGTG	-0.07 kcal/mol
AAGTTCACGTGTGTCT	0.32 kcal/mol
TTCATCACGTGGGAGT	0.06 kcal/mol
ATAGACACGTGCGGGG	-0.1 kcal/mol
CGGTACACGTGGTGGT	-0.06 kcal/mol

Sequence	relative binding free energy
CATTACACGTGGGAGT	0.07 kcal/mol
CTAGTCACGTGTTGGC	0.24 kcal/mol
TGTCTCACGTGCAGGT	0.2 kcal/mol
GAGTGCACGTGGGTGT	-0.12 kcal/mol
AAGGCCACGTGGTTTG	-0.1 kcal/mol
GGTCACACGTGAGGTT	0.35 kcal/mol
TTGCTCACGTGTGGTA	0.22 kcal/mol
GTCAGCACGTGTGGGG	0.04 kcal/mol
ATGAGCACGTGCGGGC	-0.08 kcal/mol
TGGAGCACGTGCAGTT	-0.12 kcal/mol
GCCGGCACGTGGTGGG	-0.07 kcal/mol
ATGGTCACGTGTGAGA	0.19 kcal/mol
AGATACACGTGTGTTT	0.05 kcal/mol
TCTTGCACGTGTGAGT	0.08 kcal/mol
ATTTTCACGTGGCGTT	0 kcal/mol
TGCCTCACGTGGGTGT	0.2 kcal/mol
GGGTGCACGTGGATGT	0.08 kcal/mol
TCAGGCACGTGGGTGC	-0.26 kcal/mol
GGTTCCACGTGATGAG	0.25 kcal/mol
GGGCTCACGTGGTTGA	0.23 kcal/mol
AGTGTCACGTGAGGAT	0.16 kcal/mol
TTTGGCACGTGATGAT	0.05 kcal/mol
AGTTGCACGTGATTTG	0.28 kcal/mol
